Source: PMC6380292
Changes are numbered by the printed parent chain. Names and notes keep the numbering of the source. These are yes or no findings as the source states them, for the method shown. For part of these data: Binding seen in cells or lysates may run through a third protein. Some results given as binding are weak or reduced against the parent protein; the word gives no strength. Where a sequence is shown, tags or fusion partners need not be part of it. One block for each molecule: values may come before it.

By UniProt entry, the sequences of proteins in these tests, tags left out.
UniProt P62139: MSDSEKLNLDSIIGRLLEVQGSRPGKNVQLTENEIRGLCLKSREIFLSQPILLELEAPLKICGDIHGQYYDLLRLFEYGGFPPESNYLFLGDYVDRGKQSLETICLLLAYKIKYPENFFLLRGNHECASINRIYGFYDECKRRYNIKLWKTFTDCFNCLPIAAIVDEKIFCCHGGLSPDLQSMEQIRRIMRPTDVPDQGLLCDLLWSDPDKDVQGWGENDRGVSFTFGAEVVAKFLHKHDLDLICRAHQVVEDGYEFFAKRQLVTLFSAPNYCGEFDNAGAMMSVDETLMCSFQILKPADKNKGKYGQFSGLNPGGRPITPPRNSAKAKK
UniProt P33334: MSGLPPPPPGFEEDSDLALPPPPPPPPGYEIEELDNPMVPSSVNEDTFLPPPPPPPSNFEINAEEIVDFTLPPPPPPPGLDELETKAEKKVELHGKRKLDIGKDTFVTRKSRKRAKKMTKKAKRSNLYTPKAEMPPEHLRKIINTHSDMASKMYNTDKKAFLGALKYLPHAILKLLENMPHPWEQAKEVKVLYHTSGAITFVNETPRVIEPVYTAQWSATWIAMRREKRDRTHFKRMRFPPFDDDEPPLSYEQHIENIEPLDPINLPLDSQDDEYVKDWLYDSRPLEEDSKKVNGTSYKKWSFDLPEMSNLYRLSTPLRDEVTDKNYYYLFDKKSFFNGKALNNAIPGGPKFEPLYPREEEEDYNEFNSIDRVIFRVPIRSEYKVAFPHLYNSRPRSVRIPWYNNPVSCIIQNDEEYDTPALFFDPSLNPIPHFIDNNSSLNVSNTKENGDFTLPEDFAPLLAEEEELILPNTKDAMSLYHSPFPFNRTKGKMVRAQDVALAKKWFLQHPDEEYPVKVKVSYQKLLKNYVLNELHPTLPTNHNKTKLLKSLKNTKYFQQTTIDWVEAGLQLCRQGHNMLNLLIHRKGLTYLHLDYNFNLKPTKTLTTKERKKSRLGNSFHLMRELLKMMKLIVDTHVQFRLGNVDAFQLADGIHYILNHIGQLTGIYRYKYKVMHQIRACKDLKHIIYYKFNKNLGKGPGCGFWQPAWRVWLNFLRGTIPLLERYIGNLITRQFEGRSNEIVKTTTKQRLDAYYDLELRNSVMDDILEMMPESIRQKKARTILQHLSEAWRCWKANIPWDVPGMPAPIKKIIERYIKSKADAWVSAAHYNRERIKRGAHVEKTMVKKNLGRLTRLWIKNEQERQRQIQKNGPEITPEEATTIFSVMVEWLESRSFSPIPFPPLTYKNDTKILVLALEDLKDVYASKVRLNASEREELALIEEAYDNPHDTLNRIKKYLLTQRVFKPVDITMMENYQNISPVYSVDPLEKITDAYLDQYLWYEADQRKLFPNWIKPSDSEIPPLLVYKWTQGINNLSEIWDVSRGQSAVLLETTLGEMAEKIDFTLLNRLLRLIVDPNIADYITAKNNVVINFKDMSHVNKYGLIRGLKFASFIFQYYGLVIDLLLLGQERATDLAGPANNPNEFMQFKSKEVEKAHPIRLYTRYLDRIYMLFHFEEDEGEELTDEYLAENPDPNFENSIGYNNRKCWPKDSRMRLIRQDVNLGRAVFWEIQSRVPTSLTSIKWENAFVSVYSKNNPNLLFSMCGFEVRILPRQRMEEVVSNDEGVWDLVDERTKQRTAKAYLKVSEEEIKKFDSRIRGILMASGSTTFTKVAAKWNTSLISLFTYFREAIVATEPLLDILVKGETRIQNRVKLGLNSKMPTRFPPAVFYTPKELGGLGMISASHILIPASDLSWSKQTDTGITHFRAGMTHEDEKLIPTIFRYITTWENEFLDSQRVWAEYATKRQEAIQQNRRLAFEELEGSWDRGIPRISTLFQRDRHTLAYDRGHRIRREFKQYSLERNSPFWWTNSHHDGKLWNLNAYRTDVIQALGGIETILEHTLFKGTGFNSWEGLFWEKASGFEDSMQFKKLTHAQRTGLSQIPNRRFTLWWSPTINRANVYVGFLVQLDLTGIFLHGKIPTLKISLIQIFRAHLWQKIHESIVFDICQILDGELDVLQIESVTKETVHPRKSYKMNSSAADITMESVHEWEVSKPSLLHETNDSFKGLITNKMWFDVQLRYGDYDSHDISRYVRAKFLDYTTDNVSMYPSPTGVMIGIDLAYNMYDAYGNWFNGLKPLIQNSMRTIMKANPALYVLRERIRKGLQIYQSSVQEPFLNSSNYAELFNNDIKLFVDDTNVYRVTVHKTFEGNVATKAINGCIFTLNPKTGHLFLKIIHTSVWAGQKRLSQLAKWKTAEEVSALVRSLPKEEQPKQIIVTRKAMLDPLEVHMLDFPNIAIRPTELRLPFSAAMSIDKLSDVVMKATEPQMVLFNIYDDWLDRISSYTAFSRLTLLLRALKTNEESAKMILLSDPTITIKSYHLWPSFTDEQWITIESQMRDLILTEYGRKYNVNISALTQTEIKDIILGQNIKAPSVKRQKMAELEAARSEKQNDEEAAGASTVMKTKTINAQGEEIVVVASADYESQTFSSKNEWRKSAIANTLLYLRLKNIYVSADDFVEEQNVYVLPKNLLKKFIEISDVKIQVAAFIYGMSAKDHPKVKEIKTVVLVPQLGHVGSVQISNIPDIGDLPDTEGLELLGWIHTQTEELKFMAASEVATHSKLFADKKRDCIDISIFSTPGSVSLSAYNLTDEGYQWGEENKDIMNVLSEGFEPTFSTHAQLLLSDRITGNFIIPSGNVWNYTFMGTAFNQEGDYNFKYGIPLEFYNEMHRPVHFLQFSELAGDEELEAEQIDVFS

Key:
[1] = molecular target: T1, Cwc21-13myc (yeast (Saccharomyces cerevisiae)) (UniProt Q03375); test: co-IP; Cwc21-13myc immunoprecipitated with anti-myc antibody (9E11) from yeast whole cell extract with GDP, GMPPNP or no nucleotide added; blots with anti-Prp8 and anti-Snu114
T1 sequence: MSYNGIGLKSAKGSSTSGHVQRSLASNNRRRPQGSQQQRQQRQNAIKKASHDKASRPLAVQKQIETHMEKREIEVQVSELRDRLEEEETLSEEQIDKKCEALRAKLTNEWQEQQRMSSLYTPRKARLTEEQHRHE

[2] = molecular target: T2, GST-Cwc21 (yeast (Saccharomyces cerevisiae)) (UniProt Q03375); test: pull-down; GST-tagged protein on glutathione beads, MBP-tagged Snu114 detected with anti-MBP HRP; 15 pmol of each protein, IP150 (6 mM HEPES pH 7.9, 150 mM NaCl, 5 mM MgCl2), 4°C; both purified
T2 sequence: T1 sequence

[3] = molecular target: GST-PP1 (rabbit PP1 catalytic subunit, full length) (rabbit) (UniProt P62139); test: as above

- binding [1]: binds
Molecule: Prp8 (in yeast whole cell extract) (from UniProt P33334 1-2413)

- binding [2]: binds
B1: MBP-ySnu114-ΔN (yeast Snu114, 134-1008aa) (domain or fragment, UniProt P36048 134-1008)
chain: INVGVIGPLHSGKTSLMDLLVIDSHKRIPDMSKNVELGWKPLRYLDNLKQEIDRGLSIKLNGSTLLCTDLESKSRMINFLDAPGHVNFMDETAVALAASDLVLIVIDVVEGVTFVVEQLIKQSIKNNVAMCFVINKLDRLILDLKLPPMDAYLKLNHIIANINSFTKGNVFSPIDNNIIFASTKLGFTFTIKEFVSYYYAHSIPSSKIDDFTTRLWGSVYYHKGNFRTKPFENVEKYPTFVEFILIPLYKIFSYALSMEKDKLKNLLRSNFRVNLSQEALQYDPQPFLKHVLQLIFRQQTGLVDAITRCYQPFELFDNKTAHLSIPGKSTPEGTLWAHVLKTVDYGGAEWSLVRIYSGLLKRGDTVRILDTSQSESRQKRQLHDISKTETSNEDEDEDDETPSCEVEEIGLLGGRYVYPVHEAHKGQIVLIKGISSAYIKSATLYSVKSKEDMKQLKFFKPLDYITEAVFKIVLQPLLPRELPKLLDALNKISKYYPGVIIKVEESGEHVILGNGELYMDCLLYDLRASYAKIEIKISDPLTVFSESCSNESFASIPVSNSISRLGEENLPGLSISVAAEPMDSKMIQDLSRNTLGKGQNCLDIDGIMDNPRKLSKILRTEYGWDSLASRNVWSFYNGNVLINDTLPDEISPELLSKYKEQIIQGFYWAVKEGPLAEEPIYGVQYKLLSISVPSDVNIDVMKSQIIPLMKKACYVGLLTAIPILLEPIYEVDITVHAPLLPIVEELMKKRRGSRIYKTIKVAGTPLLEVRGQVPVIESAGFETDLRLSTNGLGMCQLYFWHKIWRKVPGDVLDKDAFIPKLKPAPINSLSRDFVMKTRRRKGISTGGFMSNDGPTLEKYISAELYAQLRENGLVP

B2: MBP-ySnu114-814/6/8-A-ΔN (yeast Snu114 134-1008 with three Alanine substitutions in YGVQYK) (domain or fragment, UniProt P36048 134-1008)
chain: B1 chain with Y681A, V683A, Y685A
- binding [2]: no binding (tested: 15 pmol of each protein)
- binding [3]: no binding (tested: 15 pmol of each protein)

- binding [1]: binds
B3: Snu114 (in yeast whole cell extract) (protein, UniProt P36048 1-1008)
chain: MEGDDLFDEFGNLIGVDPFDSDEEESVLDEQEQYQTNTFEGSGNNNEIESRQLTSLGSKKELGISLEHPYGKEVEVLMETKNTQSPQTPLVEPVTERTKLQEHTIFTQLKKNIPKTRYNRDYMLSMANIPERIINVGVIGPLHSGKTSLMDLLVIDSHKRIPDMSKNVELGWKPLRYLDNLKQEIDRGLSIKLNGSTLLCTDLESKSRMINFLDAPGHVNFMDETAVALAASDLVLIVIDVVEGVTFVVEQLIKQSIKNNVAMCFVINKLDRLILDLKLPPMDAYLKLNHIIANINSFTKGNVFSPIDNNIIFASTKLGFTFTIKEFVSYYYAHSIPSSKIDDFTTRLWGSVYYHKGNFRTKPFENVEKYPTFVEFILIPLYKIFSYALSMEKDKLKNLLRSNFRVNLSQEALQYDPQPFLKHVLQLIFRQQTGLVDAITRCYQPFELFDNKTAHLSIPGKSTPEGTLWAHVLKTVDYGGAEWSLVRIYSGLLKRGDTVRILDTSQSESRQKRQLHDISKTETSNEDEDEDDETPSCEVEEIGLLGGRYVYPVHEAHKGQIVLIKGISSAYIKSATLYSVKSKEDMKQLKFFKPLDYITEAVFKIVLQPLLPRELPKLLDALNKISKYYPGVIIKVEESGEHVILGNGELYMDCLLYDLRASYAKIEIKISDPLTVFSESCSNESFASIPVSNSISRLGEENLPGLSISVAAEPMDSKMIQDLSRNTLGKGQNCLDIDGIMDNPRKLSKILRTEYGWDSLASRNVWSFYNGNVLINDTLPDEISPELLSKYKEQIIQGFYWAVKEGPLAEEPIYGVQYKLLSISVPSDVNIDVMKSQIIPLMKKACYVGLLTAIPILLEPIYEVDITVHAPLLPIVEELMKKRRGSRIYKTIKVAGTPLLEVRGQVPVIESAGFETDLRLSTNGLGMCQLYFWHKIWRKVPGDVLDKDAFIPKLKPAPINSLSRDFVMKTRRRKGISTGGFMSNDGPTLEKYISAELYAQLRENGLVP

B4: MBP-hSnu114-787/9A-ΔN (human Snu114 130-972 with V787A and F789A) (domain or fragment, UniProt Q15029 130-972)
chain: RNVTLCGHLHHGKTCFVDCLIEQTHPEIRKRYDQDLCYTDILFTEQERGVGIKSTPVTVVLPDTKGKSYLFNIMDTPGHVNFSDEVTAGLRISDGVVLFIDAAEGVMLNTERLIKHAVQERLAVTVCINKIDRLILELKLPPTDAYYKLRHIVDEVNGLISMYSTDENLILSPLLGNVCFSSSQYSICFTLGSFAKIYADTFGDINYQEFAKRLWGDIYFNPKTRKFTKKAPTSSSQRSFVEFILEPLYKILAQVVGDVDTSLPRTLDELGIHLTKEELKLNIRPLLRLVCKKFFGEFTGFVDMCVQHIPSPKVGAKPKIEHTYTGGVDSDLGEAMSDCDPDGPLMCHTTKMYSTDDGVQFHAFGRVLSGTIHAGQPVKVLGENYTLEDEEDSQICTVGRLWISVARYHIEVNRVPAGNWVLIEGVDQPIVKTATITEPRGNEEAQIFRPLKFNTTSVIKIAVEPVNPSELPKMLDGLRKVNKSYPSLTTKVEESGEHVILGTGELYLDCVMHDLRKMYSEIDIKVADPVVTFCETVVETSSLKCFAETPNKKNKITMIAEPLEKGLAEDIENEVVQITWNRKKLGEFFQTKYDWDLLAARSIWAFGPDATGPNILVDDTLPSEVDKALLGSVKDSIVQGFQWGTREGPLCDELIRNAKAKILDAVVAQEPLHRGGGQIIPTARRVVYSAFLMATPRLMEPYYFVEVQAPADCVSAVYTVLARRRGHVTQDAPIPGSPLYTIKAFIPAIDSFGFETDLRTHTQGQAFSLSVFHHWQIVPGDPLDKSIVIRPLEPQPAPHLAREFMIKTRRRKGLSEDVSISKFFDDPMLLELAKQDVVLNYPM
- binding [3]: no binding (tested: 15 pmol of each protein)
